# Test results as given in the supplement of paper PMC8728848.
# Some of the results follow.
# B1: MGL6A (Homo sapiens) (protein)
# chain: MTRTYENFQYLENKVKVQGFKNGPLPLQSLLQRLCSGPCHLLLSLGLGLLLLVIICVVGFQNSKFQRDLVTLRTDFSNFTSNTVAEIQALTSQGSSLEETIASLKAEVEGFKQERQAVHSEMLLRVQQLVQDLKKLTCQVATLNNNGEEASTEGTCCPVNWVEHQDSCYWFSHSGMSWAEAEKYCQLKNAHLVVINSREEQNFVQKYLGSAYTWMGLSDPEGAWKWVDGTDYATGFQNWKPGQPDDWQGHGLGGGEDCAHFTPDGRWNDDVCQRPYHWVCEAGLGQTSQESH
# What was measured:
# Assay in all cases: glycan array binding signal (z-score within array); higher = stronger binding
# Settings in all cases: glycan notation: IUPAC condensed, linker removed; mutation: H262T
# GalNAc(b1-4)GlcNAc = target: GalNAc(b1-4)GlcNAc
# Procedure, shortened: (§1)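 The binding signal is a Z-score computed within each array. Data were drawn from 3228 arrays in the Consortium for Functional Glycomics database, restricted to those with a known protein sequence. Scores were averaged over arrays of the same protein sequence at different concentrations or buffers, and over linkers, and negative values can be taken as non-binding.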
# [1] = target: GalNAc(b1-4)GlcNAc(b1-2)Man
# Procedure, shortened: as §1
# [2] = target: GalNAc(b1-4)GlcNAc(b1-2)Man(a1-3)[GalNAc(b1-4)GlcNAc(b1-2)Man(a1-6)]Man(b1-4)GlcNAc(b1-4)GlcNAc
# Procedure, shortened: as §1
# [3] = target: GalNAc(b1-4)GlcNAc(b1-3)GalNAc(b1-4)GlcNAc
# Procedure, shortened: as §1
# GalNAc(b1-4)GlcNAc6S = target: GalNAc(b1-4)GlcNAc6S
# Procedure, shortened: as §1
# GalNAc(b1-6)GalNAc = target: GalNAc(b1-6)GalNAc
# Procedure, shortened: as §1
# GalNAc3S(b1-4)GlcNAc = target: GalNAc3S(b1-4)GlcNAc
# Procedure, shortened: as §1
# GalNAc3S(b1-4)GlcNAc3S = target: GalNAc3S(b1-4)GlcNAc3S
# Procedure, shortened: as §1
# [4] = target: GalNAc3S(b1-4)[Fuc(a1-3)]GlcNAc
# Procedure, shortened: as §1
# GalNAc4S6S(b1-4)GlcNAc = target: GalNAc4S6S(b1-4)GlcNAc
# Procedure, shortened: as §1
# GalNAc6S(b1-4)GlcNAc = target: GalNAc6S(b1-4)GlcNAc
# Procedure, shortened: as §1
# Glc(a1-4)Glc = target: Glc(a1-4)Glc
# Procedure, shortened: as §1
# [5] = target: Glc(a1-4)Glc(a1-4)Glc(a1-4)Glc
# Procedure, shortened: as §1
# Glc(a1-6)Glc(a1-6)Glc = target: Glc(a1-6)Glc(a1-6)Glc
# Procedure, shortened: as §1
# [6] = target: Glc(a1-6)Glc(a1-6)Glc(a1-6)Glc
# Procedure, shortened: as §1
# Glc(b1-4)Glc = target: Glc(b1-4)Glc
# Procedure, shortened: as §1
# Glc(b1-6)Glc = target: Glc(b1-6)Glc
# Procedure, shortened: as §1
# GlcA(b1-3)Gal = target: GlcA(b1-3)Gal
# Procedure, shortened: as §1
# GlcA(b1-3)GlcNAc = target: GlcA(b1-3)GlcNAc
# Procedure, shortened: as §1
# GlcA(b1-6)Gal = target: GlcA(b1-6)Gal
# Procedure, shortened: as §1
# [7] = target: GlcA3S(b1-3)Gal(b1-4)GlcNAc(b1-2)Man
# Procedure, shortened: as §1
# [8] = target: GlcA3S(b1-3)Gal(b1-4)GlcNAc(b1-3)Gal(b1-4)Glc
# Procedure, shortened: as §1
# [9] = target: GlcNAc(a1-3)Gal(b1-4)GlcNAc
# Procedure, shortened: as §1
# [10] = target: GlcNAc(a1-4)Gal(b1-3)GlcNAc
# Procedure, shortened: as §1
# [11] = target: GlcNAc(a1-4)Gal(b1-4)GalNAc
# Procedure, shortened: as §1
# [12] = target: GlcNAc(a1-4)Gal(b1-4)GlcNAc
# Procedure, shortened: as §1
# [13] = target: GlcNAc(a1-4)Gal(b1-4)GlcNAc(b1-3)Gal(b1-4)Glc
# Procedure, shortened: as §1
# [14] = target: GlcNAc(a1-4)Gal(b1-4)GlcNAc(b1-3)Gal(b1-4)GlcNAc
# Procedure, shortened: as §1
# [15] = target: GlcNAc(a1-4)Gal(b1-4)GlcNAc(b1-3)Gal(b1-4)GlcNAc(b1-3)Gal(b1-4)GlcNAc
# Procedure, shortened: as §1
# [16] = target: GlcNAc(a1-4)Gal(b1-4)GlcNAc(b1-3)Gal(b1-4)[Fuc(a1-3)]GlcNAc(b1-3)Gal(b1-4)[Fuc(a1-3)]GlcNAc
# Procedure, shortened: as §1
# [17] = target: GlcNAc(a1-6)Gal(b1-4)GlcNAc
# Procedure, shortened: as §1
# [18] = target: GlcNAc(b1-2)Gal(b1-3)GalNAc
# Procedure, shortened: as §1
# [19] = target: GlcNAc(b1-2)Man(a1-3)[GlcNAc(b1-2)Man(a1-6)]Man(b1-4)GlcNAc(b1-4)GlcNAc
# Procedure, shortened: as §1
# [20] = target: GlcNAc(b1-2)Man(a1-3)[GlcNAc(b1-2)Man(a1-6)]Man(b1-4)GlcNAc(b1-4)[Fuc(a1-6)]GlcNAc
# Procedure, shortened: as §1
# [21] = target: GlcNAc(b1-2)Man(a1-3)[GlcNAc(b1-4)][GlcNAc(b1-2)Man(a1-6)]Man(b1-4)GlcNAc(b1-4)GlcNAc
# Procedure, shortened: as §1
# [22] = target: GlcNAc(b1-2)Man(a1-3)[GlcNAc(b1-4)][GlcNAc(b1-2)Man(a1-6)]Man(b1-4)GlcNAc(b1-4)[Fuc(a1-6)]GlcNAc
# Procedure, shortened: as §1
# [23] = target: GlcNAc(b1-2)[GlcNAc(b1-4)]Man(a1-3)[GlcNAc(b1-2)Man(a1-6)]Man(b1-4)GlcNAc(b1-4)GlcNAc
# Procedure, shortened: as §1
# [24] = target: GlcNAc(b1-2)[GlcNAc(b1-4)]Man(a1-3)[GlcNAc(b1-4)][GlcNAc(b1-2)Man(a1-6)]Man(b1-4)GlcNAc(b1-4)GlcNAc
# Procedure, shortened: as §1
# [25] = target: GlcNAc(b1-2)[GlcNAc(b1-4)]Man(a1-3)[GlcNAc(b1-4)][GlcNAc(b1-2)[GlcNAc(b1-6)]Man(a1-6)]Man(b1-4)GlcNAc(b1-4)GlcNAc
# Procedure, shortened: as §1
# [26] = target: GlcNAc(b1-2)[GlcNAc(b1-4)]Man(a1-3)[GlcNAc(b1-4)][GlcNAc(b1-2)[GlcNAc(b1-6)]Man(a1-6)]Man(b1-4)GlcNAc(b1-4)[Fuc(a1-6)]GlcNAc
# Procedure, shortened: as §1
# [27] = target: GlcNAc(b1-2)[GlcNAc(b1-6)]Man(a1-6)[GlcNAc(b1-2)Man(a1-3)]Man(b1-4)GlcNAc(b1-4)GlcNAc
# Procedure, shortened: as §1
# [28] = target: GlcNAc(b1-2)[GlcNAc(b1-6)]Man(a1-6)[GlcNAc(b1-2)Man(a1-3)]Man(b1-4)GlcNAc(b1-4)[Fuc(a1-6)]GlcNAc
# Procedure, shortened: as §1
# [29] = target: GlcNAc(b1-2)[GlcNAc(b1-6)]Man(a1-6)[GlcNAc(b1-4)][GlcNAc(b1-2)Man(a1-3)]Man(b1-4)GlcNAc(b1-4)GlcNAc
# Procedure, shortened: as §1
# GlcNAc(b1-3)Fuc = target: GlcNAc(b1-3)Fuc
# Procedure, shortened: as §1
# GlcNAc(b1-3)Gal = target: GlcNAc(b1-3)Gal
# Procedure, shortened: as §1
binder,measurement,setting,value
B1,glycan array binding signal (z-score),GalNAc(b1-4)GlcNAc,0.415
same,glycan array binding signal (z-score),[1],1.26
same,glycan array binding signal (z-score),[2],0.007
same,glycan array binding signal (z-score),[3],1.59
same,glycan array binding signal (z-score),GalNAc(b1-4)GlcNAc6S,0.632
same,glycan array binding signal (z-score),GalNAc(b1-6)GalNAc,-0.172
same,glycan array binding signal (z-score),GalNAc3S(b1-4)GlcNAc,-0.171
same,glycan array binding signal (z-score),GalNAc3S(b1-4)GlcNAc3S,-0.171
same,glycan array binding signal (z-score),[4],-0.169
same,glycan array binding signal (z-score),GalNAc4S6S(b1-4)GlcNAc,-0.173
same,glycan array binding signal (z-score),GalNAc6S(b1-4)GlcNAc,0.267
same,glycan array binding signal (z-score),Glc(a1-4)Glc,-0.17
same,glycan array binding signal (z-score),[5],-0.176
same,glycan array binding signal (z-score),Glc(a1-6)Glc(a1-6)Glc,-0.175
same,glycan array binding signal (z-score),[6],-0.176
same,glycan array binding signal (z-score),Glc(b1-4)Glc,-0.174
same,glycan array binding signal (z-score),Glc(b1-6)Glc,-0.168
same,glycan array binding signal (z-score),GlcA(b1-3)Gal,-0.17
same,glycan array binding signal (z-score),GlcA(b1-3)GlcNAc,-0.174
same,glycan array binding signal (z-score),GlcA(b1-6)Gal,-0.173
same,glycan array binding signal (z-score),[7],-0.166
same,glycan array binding signal (z-score),[8],-0.178
same,glycan array binding signal (z-score),[9],-0.174
same,glycan array binding signal (z-score),[10],-0.167
same,glycan array binding signal (z-score),[11],-0.177
same,glycan array binding signal (z-score),[12],-0.173
same,glycan array binding signal (z-score),[13],-0.171
same,glycan array binding signal (z-score),[14],-0.17
same,glycan array binding signal (z-score),[15],-0.175
same,glycan array binding signal (z-score),[16],-0.166
same,glycan array binding signal (z-score),[17],-0.176
same,glycan array binding signal (z-score),[18],-0.165
same,glycan array binding signal (z-score),[19],-0.168
same,glycan array binding signal (z-score),[20],-0.174
same,glycan array binding signal (z-score),[21],-0.176
same,glycan array binding signal (z-score),[22],-0.177
same,glycan array binding signal (z-score),[23],-0.174
same,glycan array binding signal (z-score),[24],-0.167
same,glycan array binding signal (z-score),[25],-0.175
same,glycan array binding signal (z-score),[26],-0.175
same,glycan array binding signal (z-score),[27],-0.172
same,glycan array binding signal (z-score),[28],-0.173
same,glycan array binding signal (z-score),[29],-0.175
same,glycan array binding signal (z-score),GlcNAc(b1-3)Fuc,-0.169
same,glycan array binding signal (z-score),GlcNAc(b1-3)Gal,-0.178
